Inconclusive means that the source gave no clear call. Such entries were picked first, then a sample of the others. No potency is given beside an inconclusive call; the fits are too rough. Calls of active or inactive are those of the source. Calls come from the whole dose curve; as a rule, active = well fitted inhibition curve with a large enough effect; inconclusive = small, poorly fitted or top-dose-only effect; inactive = flat fitted curve, though single readings scatter.
Molecular target: Fructose-bisphosphate aldolase (Giardia intestinalis (strain ATCC 50803 / WB clone C6)) (UniProt A8B2U2)
Assay: qHTS Assay for Inhibitors of Fructose-1,6-bisphosphate Aldolase from Giardia Lamblia: Primary screen confirmation (AID 2787); note: nearly all actives have a fitted effect of over 45% in size
Conditions: purified Giardia aldolase enzyme activity; series mostly up to 57.5 µM
Outline: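 FBPA (40 nM in enzyme reagent, with 30 uM ZnCl2) was preincubated 10 min at RT with compound up to 57.5 uM final. Substrate plus coupled detection system was then added, and fluorescence (525/598 nm) was read after 20 min at RT.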
Potency is the fitted concentration of half-maximal effect; tags give direction and shape of the fitted curve.

UniProt A8B2U2, sequence (A8B2U2 whole entry, looked up): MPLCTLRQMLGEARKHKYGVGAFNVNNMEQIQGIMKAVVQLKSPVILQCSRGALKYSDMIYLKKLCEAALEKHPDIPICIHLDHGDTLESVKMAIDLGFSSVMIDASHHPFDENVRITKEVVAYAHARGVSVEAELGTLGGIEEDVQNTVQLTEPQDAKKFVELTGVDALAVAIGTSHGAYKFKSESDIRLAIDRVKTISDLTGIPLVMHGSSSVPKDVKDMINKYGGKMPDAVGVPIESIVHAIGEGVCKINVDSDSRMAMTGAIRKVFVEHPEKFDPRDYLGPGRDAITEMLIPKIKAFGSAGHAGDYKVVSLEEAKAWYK

Row | SMILES | Potency
1 | O=c1[nH][nH]c(=S)n1-c1ccccc1C(F)(F)F | inactive
2 | COC(=O)c1c(-c2ccc(OC)c(OC)c2)csc1N | inconclusive [inhibitor, partial curve]
3 | O=C(O)CCCNc1cc(N2CCN(C(=O)c3ccco3)CC2)c2noc3c2c1C(=O)c1ccccc1-3 | inconclusive [inhibitor, full curve]
4 | O=S(=O)(Nc1ccc(Cl)cc1)c1ccc(N2CCOCC2)c(NC(=S)NCCN2CCOCC2)c1 | inconclusive [inhibitor, partial curve]
5 | CCOc1ccc(N=Nc2ccc(O)c3ncccc23)cc1 | inconclusive [inhibitor, single point]
6 | COc1cc(N=c2ssnc2Cl)cc(OC)c1 | inactive
7 | S=c1[nH]c2cc(Cl)c3cccnc3c2o1 | inconclusive [inhibitor, partial curve]
8 | O=C(Nc1nnc(S(=O)(=O)N2CCOCC2)s1)c1ccc(F)cc1 | inconclusive [inhibitor, partial curve]
9 | COc1cccc(NC2=C(C#N)C(=O)NC(c3cccc(OC)c3O)S2)c1 (stereo not drawn) | inconclusive [inhibitor, partial curve]
10 | COc1cc(C(=O)O/N=C2/C=C(C)C(=O)C=C2C)cc(OC)c1OC | active: 14.1 µM

Molecular target: Fructose-bisphosphate aldolase A (Oryctolagus cuniculus) (UniProt P00883)
Assay: qHTS Assay for Inhibitors of Fructose-1,6-bisphosphate Aldolase from Giardia Lamblia: Rabbit FBPA Selectivity (AID 2794); note: nearly all actives have a fitted effect of over 60% in size
Conditions: Rabbit muscle FBPA enzyme inhibition, selectivity counter-screen; series mostly up to 57.5 µM
Outline: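 Glyceraldehyde-3-phosphate-coupled detection measures rabbit Class I aldolase turnover via AmpLite Red fluorescence. Compounds (final up to 57.5 uM) preincubated 10 min; signal read 20 min post-substrate at RT.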

UniProt P00883, sequence (P00883 whole entry, looked up): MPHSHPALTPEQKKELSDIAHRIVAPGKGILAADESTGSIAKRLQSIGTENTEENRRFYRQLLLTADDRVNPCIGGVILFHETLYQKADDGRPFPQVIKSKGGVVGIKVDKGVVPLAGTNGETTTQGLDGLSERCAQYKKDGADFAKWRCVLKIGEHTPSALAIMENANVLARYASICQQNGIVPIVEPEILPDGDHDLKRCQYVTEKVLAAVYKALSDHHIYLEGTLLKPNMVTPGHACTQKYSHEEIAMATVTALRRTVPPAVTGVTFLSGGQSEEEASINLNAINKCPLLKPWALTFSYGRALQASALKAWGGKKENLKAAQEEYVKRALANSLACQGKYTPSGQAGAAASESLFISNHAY

Row | SMILES | Potency
11 | CN(C)c1ccc(NC2=C(Cl)C(=O)c3ccccc3C2=O)cc1 | inconclusive [inhibitor, partial curve]
12 | CNc1nc(-c2ccccc2)[n+](-c2ccc(C)cc2)s1 | active: 10 µM
13 | Cc1ccc(S(=O)(=O)/N=C2/C=C(Sc3ncn[nH]3)C(=O)c3ccccc32)cc1 | active: 10 µM
14 | O=C(NCCO)c1cc2ccccc2cc1O | inconclusive [inhibitor, partial curve]
15 | COc1ccc(C2CC(=O)N3CN(c4ccccc4F)CSC3=C2C#N)cc1OC (stereo not drawn) | active: 31.6 µM
16 | CN1CCN(C(=S)c2ccc(N(C)C)cc2)CC1 | inconclusive [inhibitor, single point]
17 | COc1ccccc1NS(=O)(=O)c1cc(NC(=O)c2sccc2C)ccc1N1CCCC1 | inconclusive [inhibitor, single point]
18 | CCn1c(O)c(C#N)c(C)cc1=O | inconclusive [inhibitor, partial curve]
19 | O=S(=O)(NNc1nccc(C(F)(F)F)n1)c1cccc(Cl)c1Cl | inconclusive [inhibitor, partial curve]
20 | COc1cc(/C=C(\C#N)C(=O)c2c[nH]c3ccccc23)cc(OC)c1O | inconclusive [inhibitor, partial curve]
21 | COc1ccc(OC)c(C2CC(=O)N3CN(c4ccc(C)c(Cl)c4)CSC3=C2C#N)c1 (stereo not drawn) | inconclusive [inhibitor, partial curve]
22 | Cc1ccc(C(=O)Nc2ncc([N+](=O)[O-])s2)cc1 | active: 25.1 µM
23 | COc1ccc(N)cc1-n1c(C)ccc1C | inconclusive [inhibitor, partial curve]
24 | Oc1ccc(C2C[C@H]3CC[C@@H]2C3)cc1O (stereo partly drawn) | active: 31.6 µM
25 | c1ccc2c3c(cc(N4CCOCC4)c2c1)OC1(N2CCOCC2)CCCCC1O3 (stereo not drawn) | inconclusive [inhibitor, partial curve]
26 | Cc1ccc(S(=O)(=O)Nc2cc(C)cn(Cc3ccccc3)c2=O)cc1 | inconclusive [inhibitor, partial curve]
27 | CCOC(=O)c1cnc(-c2ccccc2O)nc1Cl | inconclusive [inhibitor, partial curve]
28 | Cc1ccc(C(=O)Nc2nnc(S(=O)(=O)N3CCOCC3)s2)cc1 | inconclusive [inhibitor, partial curve]
29 | O=[N+]([O-])c1cc(F)c2cccnc2c1O | inconclusive [inhibitor, partial curve]
30 | O=C(O)CCCNc1cc(N2CCN(C(=O)c3ccco3)CC2)c2noc3c2c1C(=O)c1ccccc1-3 | inconclusive [inhibitor, partial curve]
31 | O=S(=O)(Nc1ccc(Cl)cc1)c1ccc(N2CCOCC2)c(NC(=S)NCCN2CCOCC2)c1 | active: 39.8 µM
32 | S=c1[nH]c2cc(Cl)c3cccnc3c2o1 | inconclusive [inhibitor, partial curve]
33 | O=C(Nc1nnc(S(=O)(=O)N2CCOCC2)s1)c1ccc(F)cc1 | inconclusive [inhibitor, partial curve]
34 | COc1cc(C(=O)O/N=C2/C=C(C)C(=O)C=C2C)cc(OC)c1OC | active: 6.31 µM

System: not listed separately
Assay: qHTS Assay for Inhibitors of Fructose-1,6-bisphosphate Aldolase from Giardia Lamblia: Coupling assay counterscreen confirmation (AID 2795); note: nearly all actives have a fitted effect of over 55% in size
Conditions: GAPDH coupling enzyme counterscreen, biochemical; series mostly up to 57.5 µM
Outline: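 Coupling-system counterscreen without aldolase: glyceraldehyde-3-phosphate coupling enzymes preincubated 10 min with compound (up to 57.5 uM final), then substrate and AmpLite Red detection added for 20 min at RT. Fluorescence read at 525/598 nm.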

Row | SMILES | Potency
35 | CN(C)c1ccc(NC2=C(Cl)C(=O)c3ccccc3C2=O)cc1 | active: 3.66 µM
36 | Cc1ccc(S(=O)(=O)/N=C2/C=C(Sc3ncn[nH]3)C(=O)c3ccccc32)cc1 | active: 3.16 µM
37 | O=C(NCCO)c1cc2ccccc2cc1O | inconclusive [inhibitor, partial curve]
38 | COc1ccc(C2CC(=O)N3CN(c4ccccc4F)CSC3=C2C#N)cc1OC (stereo not drawn) | inconclusive [inhibitor, partial curve]
39 | CN1CCN(C(=S)c2ccc(N(C)C)cc2)CC1 | inconclusive [inhibitor, single point]
40 | COc1ccccc1NS(=O)(=O)c1cc(NC(=O)c2sccc2C)ccc1N1CCCC1 | inconclusive [inhibitor, single point]
41 | CCn1c(O)c(C#N)c(C)cc1=O | inconclusive [inhibitor, partial curve]
42 | O=S(=O)(NNc1nccc(C(F)(F)F)n1)c1cccc(Cl)c1Cl | inconclusive [inhibitor, single point]
43 | COc1cc(/C=C(\C#N)C(=O)c2c[nH]c3ccccc23)cc(OC)c1O | inconclusive [inhibitor, partial curve]
44 | COc1ccc(N)cc1-n1c(C)ccc1C | active: 8.91 µM
45 | Oc1ccc(C2C[C@H]3CC[C@@H]2C3)cc1O (stereo partly drawn) | active: 31.6 µM
46 | c1ccc2c3c(cc(N4CCOCC4)c2c1)OC1(N2CCOCC2)CCCCC1O3 (stereo not drawn) | active: 25.1 µM
47 | CCOC(=O)c1cnc(-c2ccccc2O)nc1Cl | inconclusive [inhibitor, single point]
48 | O=[N+]([O-])c1cc(F)c2cccnc2c1O | active: 31.6 µM
49 | O=C(O)CCCNc1cc(N2CCN(C(=O)c3ccco3)CC2)c2noc3c2c1C(=O)c1ccccc1-3 | inconclusive [inhibitor, partial curve]
50 | O=S(=O)(Nc1ccc(Cl)cc1)c1ccc(N2CCOCC2)c(NC(=S)NCCN2CCOCC2)c1 | active: 39.8 µM
51 | S=c1[nH]c2cc(Cl)c3cccnc3c2o1 | inconclusive [inhibitor, partial curve]
52 | O=C(Nc1nnc(S(=O)(=O)N2CCOCC2)s1)c1ccc(F)cc1 | active: 39.8 µM
53 | COc1cc(C(=O)O/N=C2/C=C(C)C(=O)C=C2C)cc(OC)c1OC | active: 3.16 µM
